B1: LINE1-mini (parent)
chain: GGCAGAGCUCAACACAGCGUGGCAAAGUGGCUGUGGCUAGACUGCC

Read counts are not given, so values of variants with three or more changes are uncertain.

The variants in the data set derive from B1. Put plainly: self-cleavage, relative activity (ratio to wild type); higher = more cleavage; in vitro, sequencing; the parent is a self-cleaving ribozyme.
For the variant A4U C8U G21A A24U, the self-cleavage is 0.07. The value for A4U C13U G33A G36C was 0.04; that for A4G G7C G17U A25G G44C was 0.02.

For A4U C15A C18U C23U U43C, the self-cleavage is 0.01. For A4G U9G G36C the value was 0.16; for A4G G5U A6G G30U G44C, 0.03. The value for A4G G22A G40U was 0.04.

A4U C13U G21U U43A C46A: the self-cleavage was 0.1. For the variant A4U A14G G19U G44U, the self-cleavage stood at 0.08.

As for A4G G5C U20C, the self-cleavage was found to be 0.04. As for A4U C42U C46U, the self-cleavage was found to be 0.11. For A4U A24C U34G the value was 0.09; for A4U A39G C46G, 0.03. The value for A4G G19C C31A was 0.07; that for A4U A11U A26G was 0.03; that for A4G G7A C31A C45G was 0.17. Regarding A4U C23U G40A, the self-cleavage is 1.45. For A4U C15U A26C C37G G40A the value was 0.05; for A4U C23A U34A, 0.06; for A4U C10A U32C, 0.05. For A4G G7A C23G G33A the value was 0.07. For the variant A4U C37G G44C, the self-cleavage was determined as 0.01. As to A4U C23U A25C, the self-cleavage turned out to be 0.08.

For A4U C18U G19A C23G A26U, the self-cleavage stood at 0.12.

A4U C15A G17C C23U G40U: the self-cleavage amounted to 0.14.

For A4U C13A A26U, the self-cleavage stood at 0.07. The value for A4U A14G C15G U28G C42A was 0.01.

Consider A4U C15G C31U, for which the self-cleavage was 0.02. The value for A4G G7C G40U was 0.1; that for A4U C8A A24C A25U G36U A39C was 0.11.

On to A4U C23A C37A, for which the self-cleavage stood at 0.04.

For A4G U20C U43A, the self-cleavage stood at 0. As to A4G G19U U34A, the self-cleavage amounted to 0.01. The value for A4U A12U G21A C31U G40A C46U was 0.07; that for A4U C10A G27U was 0.03; that for A4U C8U A11C A14G G44C was 0.03. For the variant A4G U9A U34A, the self-cleavage was 0.67.

Take A4G G19A A26G C45U: the self-cleavage is 0.13.

Take A4U C15A G29C U38G: the self-cleavage is 0.02.

A4G G40U C42A: the self-cleavage was found to be 0.02. For A4U A16U G22U G29A the value was 0.1; for A4U A12C G29U G30C, 0.05.

With A4U A6G U20G, the self-cleavage came to 0.

Turning to A4G G17A C18A G19C G21A, the self-cleavage was determined as 0.29. Take A4U C10A A39C: the self-cleavage stood at 0. For A4G G21A G27A the value was 0.42; for A4G G29U U34G, 0.03; for A4U C15U C31G, 0.06. The value for A4G G21U C31U U38G was 0.02. For the variant A4G U9C C23A G40U, the self-cleavage was found to be 0.01. For the variant A4U C13G A14G C15A A26U C37G C45G, the self-cleavage was found to be 0.02. For A4G G7U G33U the value was 0.26; for A4G G5U U9G C42G C46U, 0.02; for A4U A41U C42A C45G, 0.01. For A4U C13A G19A, the self-cleavage stood at 0.19. For A4U C18U G22C A25G A41C the value was 0.03; for A4G G17U U38C C46A, 0.05.

For the variant A4G U9C U43A C45G C46G, the self-cleavage was 0.03.

On to A4G G7A G30C G33C, for which the self-cleavage is 0.11. For A4G G7A C15G the value was 0.2; for A4G G22U A41C G44U, 0.02; for A4U C37A C42A U43C, 0.08.

As to A4U A16U G21A G29A, the self-cleavage was 0.12.

Turning to A4U A11C A26C U38G C45G, the self-cleavage was 0.04. As for A4U C13A A16C G21U C23A, the self-cleavage came to 0.08. As to A4G G19U U32A C37U, the self-cleavage came out at 0.04. For A4U C37U G40U the value was 0.1. The value for A4U C18A G27U was 0.05. The value for A4U A6C U32A C37G A41U was 0; that for A4U C13G G21C A39C was 0.03. On to A4G G21C G27C, for which the self-cleavage turned out to be 0.18.

Regarding A4U C18U A24C U32A G33C G44C, the self-cleavage turned out to be 0.02. A4G G22C C37G A41U C42A: the self-cleavage turned out to be 0.15.

Take A4U A25G A26U G27A G36A C42G C46U: the self-cleavage stood at 0. For A4G G7C U9C A16G U28G G36U C46U the value was 0; for A4U C10A C18A G21U G27A, 0.03; for A4U C10U G19A U20C C23U C31U, 0.07.

With A4U C8G G17A G19U A39C U43A G44A, the self-cleavage stood at 0.01.

As to A4U C8A A14C G19C G27A, the self-cleavage came to 0.06. For A4U A11C G27A the value was 0.03; for A4G G22C U34G G44U, 0.1; for A4U A6U G7U A26U G44C, 0.1. The value for A4G G29C G30U was 0.15.

Take A4U C18G G27C G36U: the self-cleavage stood at 1.53. As to A4U C18A G21A, the self-cleavage was 0.17. For A4G U9G U38C the value was 0.26. For A4G G21C C37A the value was 0.04. For A4U A6C U9G A39G the value was 0.04; for A4G G5U G19C G30C U38A A39U G44C, 0.05. Consider A4G U9G G22A C45U, for which the self-cleavage was determined as 0.09. Turning to A4G G33A C37G A41C, the self-cleavage turned out to be 0.18. In the case of A4U C42U U43A, the self-cleavage came out at 0.83. For the variant A4U C15A C18U A39U, the self-cleavage turned out to be 0.25. For A4U A6C U20C C37A the value was 0.08; for A4U C13U G17U A26G, 0.16. For A4U A6C A11C A14U the value was 0.01. The value for A4U C18U U43A was 0.19; that for A4U C8A G27U C31A was 0.11; that for A4U A14U U38G was 0.08. Take A4U C18A U28G U34C: the self-cleavage was 0.01. The value for A4G G7A U34A A39G was 0.19; that for A4U C10G G17C G19A U20G G35U C42U was 0.01.

Take A4U C10A G17U: the self-cleavage worked out at 0.04.

For the variant A4U C13A C18A U28C G35A G36U G40A C42A, the self-cleavage worked out at 0.01. Consider A4G G22C G36C, for which the self-cleavage worked out at 0.16. Turning to A4U A6U A14G C23U U28C G30U A39U, the self-cleavage worked out at 0.01. With A4G G21U U28C G30C, the self-cleavage stood at 0.28. The value for A4G U28C C45U was 0.45; that for A4U A16U A39G was 0.01; that for A4U A14U G19A G22U A25U U32G was 0.03. The value for A4U A14G G29A G33C A41G C42A was 0.08; that for A4G G21C A39U was 0.27; that for A4U C10A A12C G17A A25G G27A was 0.03.

In the case of A4U C37U C42U, the self-cleavage was found to be 0.01.

Turning to A4G G27U C37G C46U, the self-cleavage was 0.01. For A4U C13U U38C the value was 0.21; for A4U C13U U38G, 0.03. The value for A4G G7C A24G was 0.54; that for A4U A12G G19C A39U was 0.02; that for A4U C18G G21U was 0.07. As to A4G U20G U43A, the self-cleavage turned out to be 0.25.

Turning to A4G G19A U28A A39C, the self-cleavage turned out to be 0.07.

As for A4U C8A A26U, the self-cleavage was determined as 0.14. The value for A4G G35U G40C was 0.3. For A4U C15G A16C U28C G40C the value was 0.03; for A4G U9A A16C G21C G29C, 0.16; for A4U C18G C23U G44U, 0.02. The value for A4U A14G G35A C45G C46A was 0.17; that for A4G G21A U34G was 0.14; that for A4G G5U C45A was 0.03. Turning to A4U C10A C37G, the self-cleavage is 0.01. As to A4U C13G G21U G30U, the self-cleavage was determined as 0.26. Consider A4U C13A G22U C23A G30A A39U, for which the self-cleavage amounted to 0.1. The value for A4G U32G A39U A41U was 0.04; that for A4G G27U A39U A41G was 0.07. For A4G U9A G21U the value was 0.09. In the case of A4U C8U C37A, the self-cleavage amounted to 0.26.

For A4U A6U G35C, the self-cleavage was determined as 0.03. On to A4G U34A G44C, for which the self-cleavage amounted to 0.08. On to A4G G7U C37G, for which the self-cleavage was 0.01. For A4U A11G C31A, the self-cleavage was 0.02.

Regarding A4G G21C C45U, the self-cleavage came out at 0.09. For the variant A4G G19C G29U U34A G35U A39C G40A, the self-cleavage was 0.03. For A4U A12G G17U A41C the value was 0.03; for A4U C15U U20C C23G, 0.56; for A4U A14U C23G U28C C42A U43C, 0.09. For the variant A4G G7U A26U G33U, the self-cleavage worked out at 0.08. For A4G G7C C10U U20C G29U, the self-cleavage is 0.02. For A4U C18G U20A U34G the value was 0.04; for A4G G21U C23A A25G U34A, 0.06; for A4G G19C G22U U28G G29C G40U C45U, 0.04. With A4U A16C C18A U32G U34C, the self-cleavage turned out to be 0.05. As for A4U C10A A14C, the self-cleavage was 0.01. For the variant A4G G30U U32A, the self-cleavage was found to be 0.04. For A4U C37U G44A, the self-cleavage was 0.04. For A4U C8A C13A A26U the value was 0.05; for A4U C23U C46A, 0.17. As to A4G G7C C15A C18A U20C U34G U38G A39G A41C, the self-cleavage amounted to 0.03. The value for A4U A6G C13U G21U A26C was 0.34; that for A4U A26G U34C was 0.06; that for A4U A14G G40C was 0.03. For the variant A4G U9C C10A A16C G27C C42U, the self-cleavage was 0.01. For A4U C13U U20G C37U, the self-cleavage is 0.06. Take A4U A11U A12U: the self-cleavage turned out to be 0.06.

Turning to A4U A12C A16C G17A G30U G33A, the self-cleavage worked out at 0.04. The value for A4G G7A A11G A12C C18U was 0; that for A4U A16G U28A G35C was 0.06.

The values are drawn from the RNAGym collection of RNA variant scans (doi:10.7554/elife.90254).
